Data reported in the supplement of paper PMC7335073.
In all, about 4,100 sequences were measured (“relative CpG methylation activity (normalised to average over all NNNCGNNN flanks)”: median about 0.87, highest 2% from about 2.4 on). The list shows a part of the results.

biological target: DNMT3A catalytic domain (mouse) (UniProt O88508); test: relative CpG methylation activity (normalised to average over all NNNCGNNN flanks) (relative (1 = mean)); higher = more methylation of the central CpG; details: system: in vitro, murine catalytic domain; CpG state: hemimethylated substrate pool; residues: 608-908
Experimental: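 Deep enzymology: a pool of dsDNA substrates with a central CpG flanked by 10 random nucleotides on each side was methylated by the murine DNMT3A or DNMT3B catalytic domain (0.8 mM SAM, 37 °C, 60 min). Methylation was then read out by hairpin ligation, bisulfite conversion and NGS. Values are the average methylation of each NNNCGNNN context (±3 flanks; the outer flanks are random and averaged over), normalised to the overall mean, so 1 = average activity.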

Sequence	relative CpG methylation activity
GAGCGACA	0.685
GCCCGCCC	2.25
CCCCGTCG	2.05
ACTCGCTG	1.34
TGCCGCCG	1.03
GTCCGGAC	1.77
TCCCGTGT	0.354
GAGCGCAC	1.05
TGCCGCCA	1.17
CACCGGCT	0.844
TTGCGGTC	1.43
TGACGGAT	0.512
TTCCGCGG	0.968
ACGCGAGC	1.45
TATCGATT	0.515
AGGCGCCT	1.88
CTTCGAGG	0.462
AGACGTCC	1.39
CACCGGGG	0.35
AGCCGTCG	1.08
CATCGCTT	1.58
ATCCGAAC	2.23
TCTCGCGG	0.465
CTTCGGTG	0.51
AGCCGAAT	0.558

Sequence	relative CpG methylation activity
GAGCGGCG	0.455
GCACGTGT	0.543
CTGCGTAA	1.61
CACCGGAT	0.404
CAACGCTT	1.27
TATCGACC	0.711
TTGCGCCA	1.75
AGACGAGT	0.755
ATTCGTAG	0.732
AACCGAGA	1.03
TTCCGCTT	2.48
TGTCGATT	0.505
TATCGGTT	0.38
CTACGAGA	1.72
CAGCGGGC	0.44
CAACGGCT	0.858
AGGCGCCA	1.26
GACCGGGA	0.644
GAACGGTG	0.556
CGGCGCCA	1.14
CCTCGCTG	1.27
GCCCGGTC	0.978
CGCCGACT	0.572
TACCGGGA	0.417
TCCCGTTA	0.954

Sequence	relative CpG methylation activity
GAGCGAAT	0.424
TCTCGCCG	1.58
AATCGCGC	0.546
GTACGGCG	1
CGGCGGCT	0.439
AAACGAAA	0.559
GCTCGCCT	2.09
TGACGCCA	0.932
GGGCGGAT	0.435
GGTCGGCC	0.793
TACCGCCA	1.18
AAGCGAAG	0.346
AGGCGTCC	1.54
GTGCGGCC	2.06
TACCGGAG	0.326
GAGCGCTA	0.62
GACCGTCC	1.32
ATGCGAGT	1.3
GATCGAAG	0.281
TATCGTCG	1.29
GATCGCTT	0.75
CCACGCGG	0.503
ATTCGACC	0.952
CGCCGAAC	1.36
TTTCGGCA	0.864

Sequence	relative CpG methylation activity
ATGCGTAC	1.4
CAGCGAGG	0.287
AAACGATT	0.362
GTACGGGT	1.85
GTACGTAA	2.1
ACCCGTGT	0.68
TATCGTGA	0.406
ATGCGGTC	0.906
GCCCGGCG	0.38
TGCCGGAC	0.573
GCGCGATC	1.35
CCTCGCAT	1.36
CAGCGCCT	1.1
TACCGCTC	2.06
TGGCGCTT	0.882
TTGCGGGT	1.3
TCCCGTAG	0.462
GCACGTAC	1.53
TATCGACT	0.753
ATGCGAGC	1.92
CCGCGAGA	0.625
GAGCGGCT	0.556
TAGCGGAT	0.278
GTCCGGTT	1.48
GAGCGCAA	0.614

Sequence	relative CpG methylation activity
TCGCGGAG	0.182
GTGCGGGT	1.12
GAACGGCA	0.738
GGCCGCCC	1.79
AAGCGTCA	0.81
ATTCGGCA	0.844
CTACGCCG	2.5
TATCGACA	0.702
TATCGCCA	1.03
CCCCGGAT	0.86
TGCCGCCC	1.86
GCCCGCAT	1.18
GAACGGTC	0.986
GAACGCAG	0.413
CATCGGGT	0.263
GGTCGAAT	0.287
TCCCGGAG	0.432
TCTCGCGA	0.76
GTACGGAT	1.33
ACACGATT	1.29
CACCGTCA	1.17
GCGCGCTA	1.21
GTACGTCT	2.06
GGTCGAAC	0.51
AGACGAAA	0.559

Sequence	relative CpG methylation activity
TCGCGCAG	0.513
AAGCGAAT	0.339
CCTCGGGA	0.774
TACCGTCG	1.23
AACCGTCA	1.39
GTCCGACT	1.26
TCTCGTGG	0.025
GCCCGGGG	0.455
CTCCGATA	1.57
CGGCGCCT	1.51
GTCCGATC	2.18
TAACGGTA	0.728
CATCGCTC	1.82
CGCCGTTG	0.227
GATCGTTC	0.508
AGTCGTCC	1.29
CACCGTTC	1.25
AATCGTTA	0.333
TCTCGGGT	0.851
CCTCGCCT	2.37
GGCCGACT	1.02
ACTCGAAC	1.18
CAACGGAA	1.01
GTACGGCA	1.81
CCACGGTG	1.05

Sequence	relative CpG methylation activity
CCCCGACT	1.08
GTCCGGCA	1.64
TAGCGACT	0.49
CACCGACG	0.743
AGGCGAGC	1.01
CGTCGTCC	1.43
CAACGCAA	0.864
ATTCGGCG	0.659
AGGCGTAT	0.144
CTTCGCCC	1.88
TAGCGTGC	0.134
GATCGTCG	0.625
CAACGGGT	0.889
TAGCGAGG	0.294
TGGCGCAC	0.846
CCCCGCCC	2.18
AGTCGGAC	0.436
GAGCGCTC	1.3
GTGCGACA	1.52
CGGCGCAG	0.391
GAGCGACC	0.754
TTGCGGGG	0.921
TGGCGTCC	1.09
AAACGGTA	0.536
GCCCGAGT	1.17

Sequence	relative CpG methylation activity
ACCCGAGG	0.606
GAACGCAT	0.638
GAGCGAGA	0.37
GATCGTAG	0.156
AGGCGACC	0.55
GAGCGACG	0.63
CGCCGATA	0.761
GGTCGGGG	0.025
TCACGCGT	0.964
GGACGCGA	0.481
ACTCGCCT	2.31
AGTCGGCG	0.479
ACTCGTGC	0.588
TCGCGCTT	1.08
ACACGATG	0.901
TAGCGACA	0.498
ACACGAAT	1.04
GGACGCAC	1.05
CAGCGAAT	0.31
GGTCGTGG	0.319
GGTCGCGA	0.354
CACCGGTG	0.433
CGACGGAG	0.179
GGACGGGC	0.536
CAGCGCGG	0.084

Sequence	relative CpG methylation activity
TAGCGACG	0.377
GCACGCGT	1.15
TTGCGAGC	1.57
TTGCGCGA	1.22
CGCCGAGG	0.61
TGACGTCC	1.32
TCTCGTCT	1.63
GTGCGGTG	0.882
TAACGACG	0.623
TATCGTCT	1.27
ATGCGGGA	0.761
AACCGCTC	1.99
GTTCGAGT	0.592
TGCCGTGA	0.388
CTGCGCCG	1.93
CTCCGGCG	1.55
GAGCGGTG	0.476
GTTCGATA	0.857
ATCCGGGC	1.22
TGGCGACC	0.806
AACCGACG	0.868
TAGCGCCG	0.827
GAACGCAA	0.701
ACTCGTTC	1.29
TGTCGAGG	0.417

Sequence	relative CpG methylation activity
GTGCGTGA	0.99
AACCGGAT	0.63
TGTCGTAG	0.46
GAACGGTT	0.355
CGACGATG	0.429
TGTCGCCG	0.913
TTACGACC	2.05
TAACGAAA	0.751
AGTCGTTA	0.561
GAGCGATA	0.521
GTGCGCCA	2.05
AAACGAAG	0.237
CGACGTTC	1.01
GACCGCGG	0.58
AGTCGATA	0.441
TTTCGCTT	1.99
GGGCGCTC	1.22
AGACGGAG	0.27
ATACGCTA	2.15
CACCGCCA	1.32
TCTCGGGC	0.588
GAACGATA	0.529
CAACGACA	0.845
CGCCGTGG	0.287
GGGCGCAA	0.9

Sequence	relative CpG methylation activity
CACCGAAG	0.439
AGACGTCT	1.14
TGCCGGCC	0.873
AAGCGGGG	0.352
AAGCGCGA	0.436
GAGCGATC	0.793
GGACGCGG	0.17
GACCGTAT	0.549
AGACGGGG	0.692
CCACGTGT	0.761
AAACGTTG	0.283
GGCCGGGT	0.776
TGACGCTT	1.05
ACCCGCCC	2.24
GTTCGAAT	0.621
TTTCGCCC	2.2
TTGCGTTA	1.86
TGGCGCGG	0.288
GCCCGGTG	0.679
AGACGACT	0.561
AAGCGCAA	0.599
GACCGATA	1.09
GTACGAAG	1.29
TCGCGGAC	1.16
CTGCGAAA	1.32

Sequence	relative CpG methylation activity
GGGCGGAG	0.385
AACCGTGC	0.379
CCACGTGA	0.741
TTGCGAAT	0.969
GCGCGGTA	0.841
CTACGAAG	0.858
GTCCGTCC	2.02
TATCGCAG	0.425
GGCCGCAA	0.657
GAACGGCG	0.598
CGACGCAT	0.473
CATCGAGA	0.307
TGGCGCGA	0.511
CTGCGGCA	1.54
AACCGCCA	1.02
TGTCGTAC	0.709
CATCGACA	0.882
TAACGGCG	0.782
TCTCGGCC	1.46
ACACGAAA	1.49
AGTCGATT	0.5
GAACGATG	0.461
GTGCGAAA	1.46
TCACGGTG	0.573
TTCCGACG	1.77

Sequence	relative CpG methylation activity
GCACGTAT	0.826
TCACGCCT	2.16
GCCCGTCT	1.29
CCCCGTAC	1.17
AGGCGGAG	0.303
AGTCGGCA	0.604
GGACGCCT	1.04
GTACGTTC	1.95
GATCGCTC	1.32
AATCGCTG	0.484
GAACGGGG	0.693
GGACGCCA	1.08
TACCGAAA	0.93
CGGCGTCT	0.298
GGACGGCT	1
TAGCGTCA	1.01
CGTCGATC	0.617
TAACGCGG	0.271
TTTCGGTA	0.93
TGTCGCTG	0.867
ACCCGAAT	1.11
GTACGGCC	2.27
AGGCGTAC	0.5
AGACGCAT	0.724
ATCCGCAC	1.91

Sequence	relative CpG methylation activity
TCACGTAC	1.51
GCTCGCTA	0.845
GTGCGAGC	1.43
GCTCGTAT	0.654
GGTCGAGG	0.204
CTGCGCAA	1.55
GTGCGTTA	1.12
GACCGATG	0.705
GTCCGAGT	1.99
CCACGTTT	1.1
TAACGCCA	1.06
GCTCGCCG	1.72
TGACGTAG	0.41
CTTCGAGT	1.05
TGGCGAGC	0.904
ATGCGATT	1.37
GGACGGGT	0.4
ATCCGCGA	1.03
AGTCGACA	0.556
